Where a name gives a salt, the structure may show the parent alone. ± gives the standard deviation of the averaged measurements. Some of the results follow. Single values are uncertain, as repeats are few or missing.
What was measured:
Assay in all cases: area under viability curve (10 nM-1 µM), viability relative to solvent or trametinib-only control (AUC (arbitrary, % viability x concentration range)); higher = less growth inhibition (more viable cells)
KCNR = conditions: 72 h compound exposure (96 h after seeding) h
Description: (§1)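 Four neuroblastoma cell lines (KCNR, SKNBE, SJNB8, SKNAS) were seeded in 384-well plates. At 24 h, 1 µM trametinib or DMSO was added, followed by library compounds at 10 nM, 100 nM and 1 µM. Viability was read by MTT at 96 h and normalised to solvent-treated cells (DMSO arm) or to trametinib-only cells (trametinib arm). The area under the 3-point viability curve was computed in GraphPad Prism; units are as given (approx. 100000 = no effect).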

SJNB8 = conditions: 72 h compound exposure (96 h after seeding) h; trametinib co-treatment 0 µM
Description: as §1

SKNAS = conditions: 72 h compound exposure (96 h after seeding) h
Description: as §1

SKNBE = conditions: 72 h compound exposure (96 h after seeding) h
Description: as §1
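Also: KCNR is a neuroblastoma cell line carrying an ALK mutation, in this DMSO arm without trametinib, viability was normalised to solvent-treated cells.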

SMILES | area under viability curve (KCNR; trametinib co-treatment 0 µM) | area under viability curve (KCNR; trametinib co-treatment 1 µM) | area under viability curve (SJNB8) | area under viability curve (SKNAS; trametinib co-treatment 0 µM) | area under viability curve (SKNAS; trametinib co-treatment 1 µM) | area under viability curve (SKNBE; trametinib co-treatment 0 µM) | area under viability curve (SKNBE; trametinib co-treatment 1 µM)
O=c1cc(N2CCOCC2)oc2c(-c3ccccc3)cccc12 | 98400 | 96500 | 97500 | 71100 | 98600 | 101000 | 93500
CC(=O)Nc1cccc(-n2c(=O)n(C3CC3)c(=O)c3c(Nc4ccc(I)cc4F)n(C)c(=O)c(C)c32)c1 [Trametinib (DMSO solvate)] | 76700 | 107000 | 21600 | 45800 | 106000 | 68500 | 113000
Cc1ccc(C(=O)Nc2ccc(CN3CCN(C)CC3)c(C(F)(F)F)c2)cc1C#Cc1cnc2cccnn12 [Ponatinib] | 90800 | 87200 | 75800 | 97400 | 84800 | 93900 | 83100
Nc1nc(OCc2cc(Br)cs2)c2[nH]cnc2n1 [Lomeguatrib] | 96000 | 91500 | 86800 | 96000 | 96400 | 81400 | 87100
CC1(C)CNc2cc(NC(=O)c3cccnc3NCc3ccncc3)ccc21 [Motesanib] | 106000 | 107000 | 99000 | 138000 | 100000 | 119000 | 104000
CCc1c2c(nc3ccc(OC(=O)N4CCC(N5CCCCC5)CC4)cc13)-c1cc3c(c(=O)n1C2)COC(=O)[C@]3(O)CC [Irinotecan HCl (trihydrate)] | 81700 | 62300 | 85400 | 79600 | 104000 | 97700 | 93600
COc1cc(CCc2cc(NC(=O)c3ccc(N4CC(C)NC(C)C4)cc3)n[nH]2)cc(OC)c1 (configuration not stated) | 91600 | 80000 | 90600 | 116000 | 94300 | 88300 | 87700
CNNCc1ccc(C(=O)NC(C)C)cc1 [Procarbazine HCl] | 107000 | 94300 | 79600 | 77100 | 101000 | 98900 | 95800
COc1cc2c(cc1OC)CN(CCc1ccc(NC(=O)c3cc(OC)c(OC)cc3NC(=O)c3cnc4ccccc4c3)cc1)CC2 [Tariquidar] | 104000 | 102000 | 81700 | 83300 | 101000 | 107000 | 113000
CCCC(CCC)C(=O)NO [Valproic acid hydroxamate] | 102000 | 107000 | 86400 | 111000 | 95900 | 111000 | 97300
O=c1[nH]c(=O)n([C@H]2C[C@H](O)[C@@H](CO)O2)cc1I [Idoxuridine] | 101000 | 99100 | 81400 | 88900 | 95200 | 99400 | 93100
CCOc1cc2ncc(C#N)c(Nc3ccc(F)c(Cl)c3)c2cc1NC(=O)/C=C/CN(C)C [Pelitinib] | 88000 | 84300 | 84700 | 84400 | 93400 | 90300 | 79100
CC(=O)O[C@H]1CC[C@@]2(C)C(=CC[C@@H]3[C@@H]2CC[C@]2(C)C(c4cccnc4)=CC[C@@H]32)C1 [Abiraterone acetate] | 104000 | 96800 | 103000 | 116000 | 96100 | 102000 | 97000
CCNC(=O)[C@@H]1CCCN1C(=O)[C@H](CCCNC(=N)N)NC(=O)[C@H](CC(C)C)NC(=O)[C@@H](CC(C)C)NC(=O)[C@H](Cc1ccc(O)cc1)NC(=O)[C@H](CO)NC(=O)[C@H](Cc1c[nH]c2ccccc12)NC(=O)[C@H](Cc1c[nH]cn1)NC(=O)[C@@H]1CCC(=O)N1 [Leuprolide acetate] | 102000 | 101000 | 97600 | 119000 | 96500 | 115000 | 99900
CCc1cc(Nc2nccc(-c3c(-c4ccc(OC)c(C(=O)Nc5c(F)cccc5F)c4)nc4ccccn34)n2)c(OC)cc1N1CCC(N2CCN(S(C)(=O)=O)CC2)CC1 | 60100 | 69000 | 108000 | 106000 | 75700 | 52300 | 23400
Cc1cc2c(F)c(Oc3ncnn4cc(OC[C@@H](C)OC(=O)[C@H](C)N)c(C)c34)ccc2[nH]1 [Brivanib alaninate] | 107000 | 102000 | 83700 | 85900 | 104000 | 102000 | 108000
CNC(=O)c1ccc(N2C(=S)N(c3ccc(C#N)c(C(F)(F)F)c3)C(=O)C2(C)C)cc1F [Enzalutamide] | 106000 | 101000 | 95800 | 85800 | 103000 | 104000 | 96000
CCN(CC)CCNC(=O)c1c(C)[nH]c(/C=C2\C(=O)Nc3ccc(F)cc32)c1C [Sunitinib] | 95100 | 93000 | 83800 | 102000 | 101000 | 97100 | 103000
CCCC(CCC)C(=O)O [Valproic acid] | 103000 | 104000 | 86300 | 78900 | 95800 | 95500 | 103000
Cc1ccc(NC(=O)c2ccc(CN3CCN(C)CC3)cc2)cc1Nc1nccc(-c2cccnc2)n1 [Imatinib base] | 90700 | 92000 | 96600 | 118000 | 104000 | 92400 | 90200
O[C@@H](COc1cccc2ncccc12)CN1CCN([C@@H]2c3ccccc3[C@@H]3[C@H](c4ccccc42)C3(F)F)CC1 [Zosuquidar] | 98800 | 100000 | 86700 | 116000 | 95300 | 110000 | 115000

SMILES | area under viability curve (KCNR; trametinib co-treatment 0 µM) | area under viability curve (KCNR; trametinib co-treatment 1 µM) | area under viability curve (SJNB8) | area under viability curve (SKNAS; trametinib co-treatment 0 µM) | area under viability curve (SKNAS; trametinib co-treatment 1 µM) | area under viability curve (SKNBE; trametinib co-treatment 0 µM) | area under viability curve (SKNBE; trametinib co-treatment 1 µM)
COc1cccc2c1C(=O)c1c(O)c3c(c(O)c1C2=O)C[C@@](O)(C(=O)CO)C[C@@H]3O[C@H]1C[C@H](N)[C@H](O)[C@H](C)O1 [Doxorubicin hydrochloride] | 9520 | 5510 | 68900 | 53100 | 36000 | 54800 | 14200
CC(=O)O[C@H]1C(=O)[C@@]2(C)[C@H]([C@H](OC(=O)c3ccccc3)[C@]3(O)C[C@H](OC(=O)[C@H](O)[C@@H](NC(=O)c4ccccc4)c4ccccc4)C(C)=C1C3(C)C)[C@]1(OC(C)=O)CO[C@@H]1C[C@@H]2O [Paclitaxel] | 14100 | 20600 | 30200 | 28600 | 21800 | 32400 | 10400
CC(C)(C)c1nc(-c2cccc(NS(=O)(=O)c3c(F)cccc3F)c2F)c(-c2ccnc(N)n2)s1 [Dabrafenib] | 91900 | 101000 | 111000 | 122000 | 104000 | 107000 | 95400
CCOc1ccn(-c2ccc(F)cc2)c(=O)c1C(=O)Nc1ccc(Oc2ccnc(N)c2Cl)c(F)c1 | 107000 | 105000 | 92800 | 126000 | 98900 | 110000 | 108000
Cc1ccc(Nc2nccc(N(C)c3ccc4c(C)n(C)nc4c3)n2)cc1S(N)(=O)=O [Pazopanib] | 105000 | 102000 | 110000 | 123000 | 106000 | 115000 | 93200
CCC1=C[C@H]2CN(C1)Cc1c([nH]c3ccccc13)[C@@](C(=O)OC)(c1cc3c(cc1OC)N(C)[C@H]1[C@@](O)(C(=O)OC)[C@H](OC(C)=O)[C@]4(CC)C=CCN5CC[C@]31[C@@H]54)C2 [Vinorelbine bitatrate] | 14300 | 13000 | 56700 | 27300 | 16200 | 41600 | 10100
CNC(=O)c1cc(Oc2ccc(NC(=O)Nc3ccc(Cl)c(C(F)(F)F)c3)c(F)c2)ccn1 [Regorafenib] | 96600 | 96800 | 90000 | 83400 | 92800 | 109000 | 96100
C[C@@H](Oc1cc(-c2cnn(C3CCNCC3)c2)cnc1N)c1c(Cl)ccc(F)c1Cl [Crizotinib] | 61600 ± 7200 | 61300 ± 4600 | 102000 ± 8900 | 98300 ± 36000 | 88550 ± 280 | 101000 ± 2800 | 92470 ± 770
O=C(CCCCCCC(=O)Nc1ccccc1)NO [Vorinostat] | 62200 | 49100 | 76500 | 69100 | 68200 | 77200 | 63700
C#Cc1cccc(Nc2ncnc3cc(OCCOC)c(OCCOC)cc23)c1 [Erlotinib mesylate] | 100000 | 101000 | 83600 | 104000 | 94900 | 99000 | 104000
CC[C@]1(O)C[C@H]2CN(CCc3c([nH]c4ccccc34)[C@@](C(=O)OC)(c3cc4c(cc3OC)N(C=O)[C@H]3[C@@](O)(C(=O)OC)[C@H](OC(C)=O)[C@]5(CC)C=CCN6CC[C@]43[C@@H]65)C2)C1 [Vincristine sulfate] | 11700 | 10700 | 26800 | 21300 | 17700 | 22500 | 2980
COc1cccc2c1C(=O)c1c(O)c3c(c(O)c1C2=O)C[C@@](O)(C(C)=O)C[C@@H]3O[C@H]1C[C@H](N)[C@H](O)[C@H](C)O1 [Daunorubicin HCl] | 8410 | 3040 | 72000 | 46200 | 41500 | 46700 | 16000
O=c1ncccn1[C@@H]1O[C@H](CO)[C@@H](O)[C@H]1O [Zebularine] | 103000 | 99900 | 95400 | 95700 | 100000 | 112000 | 104000
O=C(c1ccc(Cl)cc1Cl)n1nnc2ccccc21 | 109000 | 107000 | 87000 | 115000 | 102000 | 109000 | 106000
NC(=O)c1ccncc1 [Isonicotinamide] | 101000 | 100000 | 83400 | 103000 | 101000 | 102000 | 94200
COc1cc([C@@H]2c3cc4c(cc3[C@@H](O[C@@H]3O[C@@H]5CO[C@@H](C)O[C@H]5[C@H](O)[C@H]3O)[C@H]3COC(=O)[C@H]23)OCO4)cc(OC)c1O [Etoposide] | 47600 | 22700 | 77000 | 100000 | 75600 | 89400 | 54900
COc1cc(Nc2c(C#N)cnc3cc(OCCCN4CCN(C)CC4)c(OC)cc23)c(Cl)cc1Cl [Bosutinib isomer 1] | 101000 | 106000 | 87800 | 112000 | 104000 | 95400 | 100000
Nc1ccn([C@H]2CC[C@@H](CO)O2)c(=O)n1 [Zalcitabine] | 103000 | 100000 | 91400 | 112000 | 101000 | 104000 | 111000
CS(=O)(=O)CCNCc1ccc(-c2ccc3ncnc(Nc4ccc(OCc5cccc(F)c5)c(Cl)c4)c3c2)o1 [Lapatinib tosylate] | 110000 | 103000 | 69400 | 76700 | 103000 | 86100 | 96700
C[C@H]1O[C@@H](n2cc(F)c(=O)[nH]c2=O)[C@H](O)[C@@H]1O [Doxifluridine] | 106000 | 96000 | 108000 | 61600 | 104000 | 111000 | 99000
